The subject of the data set is ATP. Nature of the data set: switch fluorescence ratio, 500 uM ATP over buffer (Cy3 cluster intensity, sum of 5 cycles each) (fold (ratio)); higher = stronger signal-on switching upon ATP binding; sequences stand for … in TCGTCGGCAGCGTCAGATGTGTATAAGAGACAGTTTTTTTTTTTTTTTTTTTTTTTTT…TC. The settings on record: aptamer strand: ATP DNA aptamer (quencher-CACCTGGGGGAGTATTGCGGAGGAAGG + anchor), 100 nM annealed; ATP concentration: 500 uM; one replicate. The method, boiled down:
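After annealing to 100 nM quencher-labelled ATP aptamer, Cy3-labelled switching-strand clusters on a modified Illumina MiSeq flow-cell were imaged in selection buffer. A second image followed after 15 min with 500 uM ATP at 22 °C, and five such buffer/ATP cycles were done, each separated by NaOH stripping and re-annealing. The fluorescence ratio, averaged per switch-domain sequence, is summed target-cycle over summed buffer-cycle Cy3 intensity per cluster, with clusters outside 100-1000 RFU excluded.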

Drawing on the supplement of paper PMC10126150, this text covers switch fluorescence ratio for 120 sequences.

Values marked as one replicate rest on one cluster of the flow cell; about a third of the high ones do not repeat.
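Also: ATP exposure 15 min at 22 °C before imaging.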

Turning to ACCGCAACTT, the switch fluorescence ratio came out at 2.02.
CAATAGCGCC: the switch fluorescence ratio was found to be 1.06.
Consider GGACGGGGTG, for which the switch fluorescence ratio came to 0.974.
The figure for CGTTCTCTTG is 1.01.
As for GACATGCCCT, the figure is 0.971.
As for TTGGGCAACC, the figure is 1.02.
With GTTGGTCCCC, the switch fluorescence ratio was 0.996.
Take GACTTTTTAT: the switch fluorescence ratio was 0.959.
For the sequence GGAACCCTTT, the switch fluorescence ratio came to 1.03.
For the sequence GCTATTGTAT, the switch fluorescence ratio came to 1.
As for GGGCCGTCAC, the switch fluorescence ratio is 1.06.
For the sequence ATTGGATCAA, the switch fluorescence ratio came to 1.05.
For TAGCTGGGGT, the switch fluorescence ratio amounted to 0.989.
The figure for CCAGGGATAA is 1.07; for TAACACGTC it is 1.09; for AGGCCAGAGA it is 0.992.
Turning to ATAACACGGT, the switch fluorescence ratio amounted to 0.975.
As for TGGCTACGTG, the switch fluorescence ratio turned out to be 0.979.
The figure for TTATGTATCT is 0.971.
With TACCGTGTGC, the switch fluorescence ratio was 0.995.
On to TTCGATGTG, for which the switch fluorescence ratio turned out to be 0.981.
On to TGTGTGGTGG, for which the switch fluorescence ratio was 1.03.
For TTCTGTGTTC, the switch fluorescence ratio was 1.02.
For TTGAGACACA, the switch fluorescence ratio came out at 1.07.
Take GTTGCTCTAG: the switch fluorescence ratio was determined as 0.983.
In the case of TCTACGAAGT, the switch fluorescence ratio was 1.27.
As for ATACTCAGTA, the figure is 1.01.
Regarding ATCCGGCAAT, the switch fluorescence ratio came out at 2.7.
Consider CGCAATTTTT, for which the switch fluorescence ratio is 4.02.
For TCCGTCCATA, the switch fluorescence ratio came out at 1.34.
As for TGCTCGTCGG, the figure is 1.
In the case of ATTATATCTT, the switch fluorescence ratio was 1.
The figure for CTGCGTTTTT is 0.987; for GCGTCAGGAA it is 1.
As for ACTAATCATA, the switch fluorescence ratio was found to be 1.03.
Take GCCTGCATT: the switch fluorescence ratio was determined as 0.978.
The figure for GTAAATTCCT is 1.42.
The figure for CTAACCTGGG is 1.08; for CAGGGCAAAA it is 1.04; for TCGAGGCTCT it is 1.06.
As for TGGGTGGAGT, the switch fluorescence ratio worked out at 0.948.
Consider AGGCTCTTCG, for which the switch fluorescence ratio came out at 0.992.
The figure for AATTTTCCTG is 1.02.
The figure for TCCATGTAGG is 1.01; for GCAACTTATC it is 1.14; for CAACTGTTCT it is 0.994.
With AAAGTTCGTT, the switch fluorescence ratio worked out at 1.
GGGGCGAAGA: the switch fluorescence ratio came to 0.983.
Take AGCGTCCCAT: the switch fluorescence ratio was found to be 1.05.
In the case of ACCGAAACGC, the switch fluorescence ratio amounted to 1.51.
Take AACCCCTTAT: the switch fluorescence ratio turned out to be 0.999.
As for AAAAGCGTCG, the switch fluorescence ratio was found to be 1.02.
In the case of AGTTAGTTGA, the switch fluorescence ratio was determined as 0.994.
With TGCTTATACG, the switch fluorescence ratio was determined as 1.04.
Take CTACGTATGC: the switch fluorescence ratio worked out at 1.74.
Regarding CCTCCTATGT, the switch fluorescence ratio worked out at 2.22.
As for CCTCTAATGA, the figure is 2.37; as for GCGGTATCTT, 1; as for CCCCAGTTTC, 1.11.
The figure for GTAAGTTCCC is 1; for CCTGTCGGTG it is 1.06; for GAACGTTGTA it is 1.03.
As for TGAGTATTCT, the switch fluorescence ratio worked out at 1.02.
As for TGGATCAGCG, the switch fluorescence ratio was determined as 1.01.
As for TGGCCAGGGC, the figure is 0.999; as for GTTCCGAATG, 1.09; as for GAGATGAGAG, 1.02.
For GTTAAGTTGG, the switch fluorescence ratio was determined as 0.996.
In the case of GCCGTGGTAG, the switch fluorescence ratio worked out at 1.01.
As for AAGATGGACC, the figure is 1.02.
As for TGCTAAACGA, the switch fluorescence ratio came to 1.05.
Turning to CGGGCTTCG, the switch fluorescence ratio is 0.989.
In the case of TGGGGGCCTC, the switch fluorescence ratio turned out to be 1.03.
As to TGACGAATTA, the switch fluorescence ratio is 1.04.
Regarding ATAGTACTGC, the switch fluorescence ratio was 1.08.
Take AGAGCATTGG: the switch fluorescence ratio is 1.08.
With TGGGACGGTT, the switch fluorescence ratio amounted to 0.973.
As for CTCAGGATGG, the figure is 1.01.
GTTCAGGGTG: the switch fluorescence ratio was found to be 1.22.
With TTCAAAGAAT, the switch fluorescence ratio stood at 1.01.
Consider GACGTATGGT, for which the switch fluorescence ratio was 0.997.
Regarding CCGCATGAGT, the switch fluorescence ratio stood at 3.7.
As for ACCTGGAGG, the switch fluorescence ratio came out at 1.04.
For the sequence GTGAGTCCCC, the switch fluorescence ratio came to 0.943.
As for AGTAGCGTAG, the figure is 1.01; as for GGTCTGTTCT, 0.955.
As for TTTACCTTT, the figure is 1.13; as for CATGTACCTG, 1.07; as for GTACCCGAAA, 1.56.
On to CAGGACTTCA, for which the switch fluorescence ratio worked out at 1.01.
Consider CGACCTGGGC, for which the switch fluorescence ratio was found to be 1.07.
As to GTGAACATAA, the switch fluorescence ratio is 1.04.
Take TATGCTTACG: the switch fluorescence ratio turned out to be 0.965.
On to GTTGGCGTTC, for which the switch fluorescence ratio was 1.03.
Consider CCTGGTTTGT, for which the switch fluorescence ratio is 0.994.
Regarding GAAGGGACAC, the switch fluorescence ratio is 1.07.
CTAGGTGTCC: the switch fluorescence ratio was 0.999.
TCTTTAATGT: the switch fluorescence ratio came out at 0.997.
Regarding ATAGGTCACA, the switch fluorescence ratio worked out at 1.03.
TCCTTGTGTG: the switch fluorescence ratio was 1.
Consider CGGGTCGACA, for which the switch fluorescence ratio came out at 1.03.
In the case of TCGGGAGAGG, the switch fluorescence ratio came to 0.954.
With AAGTGATCGC, the switch fluorescence ratio is 0.991.
In the case of TCCTCGTTTT, the switch fluorescence ratio was 1.08.
Take ATATATAAAA: the switch fluorescence ratio came out at 1.02.
Take ACTCACGGG: the switch fluorescence ratio was 1.39.
Turning to ATCGGAGCTT, the switch fluorescence ratio is 1.28.
For TCAAGGGCTA, the switch fluorescence ratio worked out at 1.01.
For the sequence TGGGGACCTG, the switch fluorescence ratio turned out to be 1.
For TTGTATAGTC, the switch fluorescence ratio worked out at 0.94.
In the case of GCCATACTCT, the switch fluorescence ratio was 1.45.
Take ATTACTACTG: the switch fluorescence ratio amounted to 1.06.
Turning to CTCACCTTCT, the switch fluorescence ratio was found to be 1.5.
GCTTGTCTTG: the switch fluorescence ratio amounted to 0.999.
As for GGCCTGCCGC, the figure is 1.03; as for CATAGGTTCG, 0.996; as for GAACCTTGTT, 1.01.
For the sequence TATCGTGATT, the switch fluorescence ratio worked out at 1.04.
Take TGCGATAGGG: the switch fluorescence ratio stood at 1.03.
As for TTACCATAG, the figure is 1.12.
